Source: ChEMBL document CHEMBL1201862, “PubChem BioAssay data set” (2004)
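Protocol summary: plate cells (96-well), add compound at 5 concentrations, incubate 48 h, interpolate endpoints linearly. The concentration for 50% growth inhibition is given as GI50.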 Active and inactive are the calls of the source. No stated cut-off is given here; in the data, active = GI50 up to about 1.1 µM and inactive = higher.

Tested on: NCI-H322M
Test: NCI anticancer screen, dose series, 48 h

Row | Structure (SMILES) | GI50
1 | Cc1nc2nc3c(ncn3COCCO)c(O)n2c1C(c1ccccc1)(c1ccccc1)c1ccccc1 | inactive: 15.4 µM
2 | O=[N+]([O-])c1ccc(COc2cccc3cccnc23)cc1 | inactive: 24.9 µM
3 | COc1ccc(/C=C2\CCc3cc(OC)c(OC)cc3C2=O)cc1 | inactive: > 10 µM
4 | COc1cc(-c2cc(O)c3ccccc3n2)cc(OC)c1OC | inactive: > 75 µM
5 | C=C1C(=O)C2=CC1CCC(=O)C1(C)CCC(OC(C)=O)C(C)(C)C1CC2O (stereo not given) | inactive: 12.2 µM
6 | OCCn1cnc2c(SCc3ccccc3)ncnc21 | inactive: > 100 µM
7 | O=C(CN1CCCCC1)Nc1ccc2sc3ccccc3c(=O)c2n1 | inactive: 17.7 µM
8 | CCCCc1ccc(-n2sc3ncc(-c4ccccc4)cc3c2=O)cc1 | inactive: > 100 µM
9 | COc1cccc(/C=C/C(=O)c2sc(C(N)=S)nc2C)c1O | inactive: > 100 µM
10 | COc1ccccc1N1C(=O)CC(=O)N(C(=O)CCCCCCCCC(=O)N2C(=O)CC(=O)N(c3ccccc3OC)C2=S)C1=S | inactive: 71.3 µM
11 | CCCCCCCCC1C(C)c2c([nH]c3ccccc23)C2C(=O)N(c3ccccc3)C(=O)C21 (stereo not given) | inactive: 17.4 µM
12 | CCOC(=O)C(=O)Nc1cc(Cl)c(Cl)cc1Cl | inactive: > 100 µM
13 | C[N+](C)([O-])C12CC3CC(CC(C3)C1)C2 | inactive: 29 µM
14 | CC1(C)OCC(C(O)C2OC(C)(C)OC2/C=N\O)O1 (stereo not given) | inactive: > 100 µM
15 | CCOC(=O)C1=C(C)N(c2ccc(Cl)cc2)C2(O)C=CC(=O)C3C(=O)N(c4ccccc4)C(=O)C132 (stereo not given) | inactive: 2.4 µM
16 | O=C1c2ccccc2C(=O)C1C(c1ccc([N+](=O)[O-])cc1)C1C(=O)c2ccccc2C1=O | inactive: > 100 µM
17 | C[C@]12CC[C@H](OCCC#N)CC1=CC[C@@H]1C2CC[C@]2(C)/C(=N/OCCC#N)CCC12 (stereo not given in full) | inactive: > 100 µM
18 | Cc1ccccc1NC(=O)c1ccc([N+](=O)[O-])cc1 | inactive: > 100 µM
19 | COc1ccc2c(c1O)-c1cc(O)cc3c1[C@@H](C2)N(C)CC3 | inactive: 57.1 µM
20 | CN(C)/N=N/c1ccc(NC=O)cc1 | inactive: > 100 µM
21 | CSc1sc(=S)sc1SC | inactive: > 100 µM
22 | CC(=O)OC1CC2(c3ccccc3)C(=O)c3ccccc3N2O1 (stereo not given) | inactive: > 100 µM
23 | CC(C)OC(=O)C1=C2c3ncccc3C(=O)N2[C@@H](Cl)[C@@H](Cl)[C@@H]1Cl | inactive: > 100 µM

Row | Structure (SMILES) | GI50
24 | C[C@@H](CO)C1=CC(C#C[Si](C)(C)C)N(C(=O)Oc2ccccc2)c2ccccc21 (stereo not given in full) | inactive: 17.7 µM
25 | CC(C)NC(=O)OCc1c(COC(=O)NC(C)C)c(-c2ccc[n+](COC(=O)C3CC3)c2)n2c1CCC2 | inactive: 83.2 µM
26 | Cc1ccc(S(=O)(=O)N/N=C/C(C)C)cc1 | inactive: > 100 µM
27 | CCOC(=O)/C=C/[C@H](O[Si](CC)(CC)CC)C(C)(C)C | inactive: > 100 µM
28 | COC(=O)C12CCC(CC1=O)C2(C)C (stereo not given) | inactive: > 100 µM
29 | CC1(C)OC2COC(c3n[nH]c4c(=O)[nH]c(=O)[nH]c34)C2O1 (stereo not given) | inactive: > 100 µM
30 | CC1=CC2C(C(C)C)CC1C1C(=O)OC(=O)C21 (stereo not given) | inactive: > 100 µM
31 | O=c1cc(N2CCCC2)[nH]c(=O)n1-c1ccccc1 | inactive: > 100 µM
32 | CC(C)=CCC[C@]1(C)CC[C@]2(C)C3CCC(=C(C)C)[C@@H](CCCO)[C@]3(C)CC[C@@]2(C)C1 (stereo not given in full) | inactive: > 100 µM
33 | CC(=O)c1cccc(Nc2nc3ccccc3c3[nH]c4ccccc4c23)c1 | inactive: 4.79 µM
34 | CCOC(=O)/C=C/n1c2ccccc2c(=O)c2cc(OC)ccc21 | inactive: > 100 µM
35 | CC(=O)OCCOCNC(=S)N/N=C(\C)c1cnccn1 | inactive: 25.1 µM
36 | CC[C@@]1(O)C(=O)OCc2c1cc1n(c2=O)Cc2c-1nc1ccc(N)cc1c2CC[Si](C)(C)C | active: < 0.0107 µM
37 | CCCC(=O)Nc1cc(/C=C/C(=O)N2CC(CCl)c3c2cc([N+](=O)[O-])c2ccccc32)n(C)c1 (stereo not given) | inactive: > 100 µM
38 | CC1=C(C(=O)Nc2c(C)cccc2C)C(c2ccccc2Cl)C(C(=O)Nc2c(C)cccc2C)=C(C)N1 | inactive: > 100 µM
39 | CN(C)C1(N(C)C)Oc2c(c(=O)n(C)c(=O)n2C)C(c2ccccc2Br)C1(F)F (stereo not given) | inactive: > 100 µM
40 | Cc1ccc(OCC2OC(n3cnc4nc(Nc5ccc(Cl)c(Cl)c5)nc(Cl)c43)CC2Oc2ccc(C)cc2)cc1 (stereo not given) | inactive: > 100 µM
41 | CCC(CC)n1cc(C(=O)NC(=O)NCCCCCOC(=O)CCCCCCCCCCC(=O)OCCCCCNC(=O)NC(=O)c2cn(C(CC)CC)c(=O)[nH]c2=O)c(=O)[nH]c1=O | inactive: > 100 µM
42 | O=C1CS/C(=N/N=C/c2cn(Cc3ccc(Cl)cc3Cl)c3ccccc23)N1 | inactive: 38.1 µM
43 | CC(=O)n1c(=O)c2cc3c(=O)n(-c4cccc(C#N)c4)c(=O)c3cc2c1=O | inactive: > 100 µM
44 | CSc1ccc(-c2cc(-c3nc4ccccc4[nH]3)nc3[nH]c(-c4nc5ccccc5[nH]4)cc(=O)c23)cc1 | inactive: > 100 µM
45 | O=C1C/C(=C\c2ccccc2)C(=O)c2ccccc2N1 | inactive: 15.7 µM
46 | CC(=O)n1[nH]c(=O)n(-c2ccc(Cl)cc2)c1=O | inactive: > 100 µM

Row | Structure (SMILES) | GI50
47 | CC(=O)N(CN1C(=O)CCC1C(=O)O)c1cccc(O)c1 (stereo not given) | inactive: > 100 µM
48 | CC1Cc2c(N)nc(N3CCOCC3)nc2NC1=O (stereo not given) | inactive: > 100 µM
49 | O=c1oc2c(ccc3ccccc32)cc1C1=CSC2=NCCN12 | inactive: 48.9 µM
50 | Cc1ccc(N2C(=O)N(c3ccc(C)cc3)C3(SC=NN3C)C2=O)cc1 (stereo not given) | inactive: > 100 µM
51 | CCOC(=O)/C(=C\c1ccnc2ccccc12)P(=O)(OCC)OCC | inactive: 3.29 µM
52 | Cc1cc2c(c(/C=N/c3ccc([N+](=O)[O-])cc3)c1)OC1(C=C2)Oc2ccccc2C(=O)N1C (stereo not given) | inactive: 17.7 µM
53 | Cc1ccc(S(=O)(=O)NC(=O)Nc2ccc(C(=O)O)c(O)c2)cc1 | inactive: > 100 µM
54 | CCC1(CC)C(=O)NN(C(=O)c2ccc(Cl)cc2)C1=O | inactive: > 100 µM
55 | CC1=C(/C(C)=N/NC(=O)c2ccccc2O)C(C)C(/C(C)=N/NC(=O)c2ccccc2O)=C(C)N1 | inactive: 27 µM
56 | COc1ccccc1NC(=O)CC(=O)NNCC(=O)Nc1nc(-c2ccccc2)cs1 | inactive: > 100 µM
57 | CN(C)CC1(C)CC/C(=C\c2ccc(Cl)cc2)C1=O (stereo not given) | inactive: 53.8 µM
58 | Cc1nc2nn(Cc3ccccc3)cc2c(=O)o1 | inactive: > 100 µM
59 | NC(=O)c1ccccc1NC(=O)C(=O)Nc1n[nH]c(N)n1 | inactive: > 100 µM
60 | O=C1c2ccsc2-c2cccc3cccc1c23.O=C1c2sccc2-c2cccc3cccc1c23 | inactive: 1.35 µM
61 | C=CC1(O)CCCC=C1COCc1ccccc1 (stereo not given) | inactive: > 100 µM
62 | CCOC(=O)c1sc2nc1CSc1sc(=S)sc1SCc1nc(sc1C(=O)OCC)-c1nc(c(C(=O)OCC)s1)CSc1sc(=S)sc1SCc1nc-2sc1C(=O)OCC | inactive: > 10 µM
63 | CCCN(CCCCC(NC(C)=O)C(=O)NCc1ccccc1)C(=O)NC (stereo not given) | inactive: > 100 µM
64 | CC1C(c2ccccc2O)c2cc3c(cc2OC1N1CCOCC1)OCO3 (stereo not given) | inactive: 44.6 µM
65 | C/C(=N\NC(=S)NC(C)(C)C)c1ccccn1 | active: < 0.0156 µM
66 | C=C(C)[C@H]1C=C[C@@H](OC(=O)c2cccnc2)[C@@]23CO[C@@](C)([C@H](OC(=O)c4cccnc4)[C@@]4(OC(C)=O)C[C@H](C)[C@H](OCCC)[C@@H]4[C@H]2OC(C)=O)[C@H]13 | inactive: > 15 µM
67 | CCOP(=O)(OCC)C(C)(CC)NC (stereo not given) | inactive: > 100 µM
68 | Cc1ccc(S(=O)(=O)NC(=O)NC(Cc2ccc(O)cc2)C(=O)O)cc1 (stereo not given) | inactive: > 100 µM
69 | COc1ccc(/N=N/c2c(C)c(C#N)c(=S)n(C3OC(COC(C)=O)C(OC(C)=O)C(OC(C)=O)C3OC(C)=O)c2C)cc1 (stereo not given) | inactive: > 100 µM

Row | Structure (SMILES) | GI50
70 | CC1=NN(C(=O)CC(=O)NC(=O)CC(=O)Nc2ccccc2F)C(=O)C1/N=N/c1ccc([N+](=O)[O-])cc1 (stereo not given) | inactive: 51.1 µM
71 | O=[N+]([O-])/C(C(Cl)=C(Cl)Cl)=C1\NCCS1 | inactive: > 100 µM
72 | Cc1cc(N(CCC#N)S(=O)(=O)c2ccccc2)ccc1C=O | inactive: > 100 µM
73 | c1ccc(CC2COC(c3cccs3)=N2)cc1 (stereo not given) | inactive: > 100 µM
74 | O=c1[nH]c2cc3[nH]c4ncccc4c(=O)c3cc2[nH]1 | inactive: > 10 µM
75 | COc1ccc(-c2cc3[nH]nc(N)c3c(=O)o2)cc1 | inactive: > 100 µM
76 | O=C(OC1CCC2OOC1O2)c1ccc([N+](=O)[O-])cc1 (stereo not given) | inactive: > 100 µM
77 | CCCCCCCCCCCCCCCCOP(=O)(O)OCC(NC(C)=O)C(=O)O (stereo not given) | inactive: > 100 µM
78 | N/C(=C\c1ccc(OCc2ccccc2)c(OCc2ccccc2)c1[N+](=O)[O-])C(=O)O | inactive: > 100 µM
79 | CC(C)C1=CC23CCC4C(C)(C(=O)O)CCCC4(C)C2CC1C1C(=O)N(c2ccc(Cc4ccc(N5C(=O)C6C7CC8C9(C)CCCC(C)(C(=O)O)C9CCC8(C=C7C(C)C)C6C5=O)cc4)cc2)C(=O)C13 (stereo not given) | inactive: 11.5 µM
80 | CC(C)CC(NC(O)[BH2-][N+](C)(C)C)C(=O)NC(Cc1ccccc1)C(=O)N[C@H]1c2ccsc2/C(=N/O)[C@H]1O (stereo not given in full) | inactive: > 100 µM
81 | CC(=O)OC1CC2C(C)(C)OC(=O)CC(OC(C)=O)[C@]2(C)C2CCC3(C)C(=CCC3[C@H]3COC(=O)C3)[C@]12C (stereo not given in full) | inactive: > 100 µM
82 | N#Cc1c(-c2nc3ccccc3s2)c(=O)oc2cc(O)ccc12 | inactive: 31 µM
83 | Cn1cnc([N+](=O)[O-])c1Sc1nc(N)nc2c1ncn2C1OC(CO)C(O)C1O (stereo not given) | inactive: 12.6 µM
84 | COC1(c2ccc(Cl)cc2)SC=C(C)n2c1noc2=O (stereo not given) | inactive: > 100 µM
85 | c1ccc([P+](c2ccccc2)(c2ccccc2)c2ccc([P+](c3ccccc3)(c3ccccc3)c3ccccc3)cc2)cc1 | inactive: > 100 µM
86 | Cc1cc(S(=O)(=O)Nc2nc3cscc3c(=O)n2N)c(S)cc1Cl | inactive: 33.3 µM
87 | O=C1NC(=O)C2C3C=CC(C12)C1C2C(=O)NC(=O)C2C31 (stereo not given) | inactive: 217 µM
88 | CN1CCc2c([nH]c3ccccc23)C1 | inactive: > 100 µM
89 | Cc1c(O)c(=O)ccn1CCO | inactive: > 100 µM
90 | CCC(C)[C@H]1C(=O)N=C(N)N1C(=O)OCc1ccccc1 (stereo not given in full) | inactive: > 100 µM
